Laboratory results as given in PubChem BioAssay AID588855 (National Center for Advancing Translational Sciences (NCATS), 2011).
Where “and” joins values, the source holds several entries; their conditions need not be identical. Equal values may be shown once. The campaign covered roughly 410,000 compounds. About 5,000 (1.2%) were called active. This list was built around the results that the source calls inconclusive (neither active nor inactive); the mix of calls is not that of the screen. Calls follow the shape of the dose curve; as a rule, active = well fitted inhibition curve with a large enough effect; inconclusive = small, poorly fitted or top-dose-only effect; inactive = no such curve, though single readings can be large or run the other way. Potencies of inconclusive entries are doubtful fits and often do not repeat.

assay: qHTS for Inhibitors of TGF-b; settings: HepG2 CAGA-GFP TGF-b/SMAD3 reporter, GFP fluorescence, 18 h, TGF-beta stimulated, 500 pg/mL final; series mostly up to 46.1 µM; activity, negative = inhibition: at the top concentration; also: nearly all actives have a fitted effect of over 65% in size
Method in brief: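 Cell-based qHTS in HEPG2 carrying a CAGA-GFP Smad reporter; compounds added before 500 pg/mL final TGF-beta, 18 h incubation at 37 degrees C, GFP fluorescence quantified per cell by imaging cytometry.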
% is scaled to controls: 0 for no effect and ±100 for the full control effect; potency is read from the fitted curve at half-maximal effect; tags tell the direction and shape of the fitted curve.

Compound	activity, negative = inhibition	Potency
Cn1c(-c2sccc2OCc2ccc(Cl)cc2Cl)n[nH]c1=S	inactive: -20.8%	–
CCOC(=O)/C(=C\c1ccc([N+](=O)[O-])cc1)C(=O)c1cc(C(C)=O)c(Nc2ccccc2)s1	–	inconclusive: 5.62 µM [inhibitor, single point]
CCC(C)Oc1nc(C)cc(C)c1S(=O)(=O)c1ccccc1C (stereo unspecified)	–	inconclusive: 35.5 µM [inhibitor, single point]
O=C(Cn1cc(COc2c(Br)cc(F)cc2Br)nn1)c1ccc(O)cc1	–	inconclusive: 28.2 µM [inhibitor, partial curve, poor fit]
CC1C(=O)C(C)C(c2cc(Cl)ccc2O)NC1c1cc(Cl)ccc1O (stereo unspecified)	–	inconclusive: 35.5 µM [inhibitor, single point]
CCN(CC(=O)NCc1ccc(Cl)cc1)C(=O)CCc1ccccc1O	inactive: -19.5%	–
O=C(NCCCc1ccc(F)cc1)C1CCC(=O)N(CC2CCCCC2)C1 (stereo unspecified)	–	inconclusive: 15.8 µM [inhibitor, single point]
COc1ccccc1N1CCN(C(=O)c2ccccc2Oc2ccccc2)CC1	inactive: 0%	–
OCC1(Cc2ccc(Cl)cc2)CCN(CCCc2ccccc2)CC1	–	inconclusive: 35.5 µM [inhibitor, single point]
Cc1ccc(NC(=O)CCn2nc(C)c(S(=O)(=O)N3CCCCC3)c2C)cc1Cl	–	inconclusive: 12.6 µM [inhibitor, partial curve]
COc1ccc(-c2cc(C(F)(F)F)n3nc(C(=O)NCCCn4ccnc4)cc3n2)cc1	inactive: -4.42%	–
COc1c(C)cccc1C(=O)Nc1ccc(N2CCOCC2)c(Cl)c1	inactive: 2%	–
Nc1ccc(C(=O)N/N=C/c2cn(Cc3ccc(F)cc3)c3ccccc23)cc1	–	active: 7.94 µM
COCCCNC(=O)CCCn1c(=O)c2ccccc2n(Cc2cccc([N+](=O)[O-])c2)c1=O	–	inconclusive: 17.8 µM [inhibitor, partial curve, poor fit]
CCCCNC(=O)c1ccc2nc(-c3ccco3)c(-c3ccco3)nc2c1	–	inconclusive: 10 µM [inhibitor, partial curve]
O=C(Cc1cc(=O)[nH][nH]1)N/N=C/c1c(Cl)cccc1Cl	–	inactive
COc1cccc(NC2c3ccccc3C(=O)N2Cc2ccccc2Cl)c1 (stereo unspecified)	–	inconclusive: 12.6 µM [inhibitor, partial curve, poor fit]
COc1ccc(NC(=O)/C(=C\c2ccccc2)NC(=O)c2ccco2)cc1	inactive: -4.33%	–
CCCc1nnc(NC(=O)c2cccc(OC)c2)s1	–	inconclusive: 35.5 µM [inhibitor, single point]
O=C(c1ccc(S(=O)(=O)c2ccccc2Cl)c([N+](=O)[O-])c1)N1CCCCCC1	–	inconclusive: 35.5 µM [inhibitor, single point]
CC(C)(C)NC(=O)CN1CCN(C(=O)CCl)CC1	–	inconclusive: 6.31 µM [inhibitor, single point]
COc1cc(NC(=O)CCNC(=O)Cn2cnc3sc4c(c3c2=O)CCCC4)cc(OC)c1OC	inactive: 0.0812%	–
Cc1ccc(S(=O)(=O)N2CCN(S(=O)(=O)c3ccc(C)cc3)C2c2ccccc2)cc1	–	inconclusive: 35.5 µM [inhibitor, single point]
Cc1ccc(S(=O)(=O)N(C)C)cc1NC(=O)CCc1c[nH]c2ccccc12	–	inconclusive: 0.112 µM [inhibitor, full curve, poor fit]

Compound	activity, negative = inhibition	Potency
FC(F)(F)c1cnc(NNC(=S)Nc2ccccc2)c(Cl)c1	–	inconclusive: 20 µM [inhibitor, single point]
O=C(NCC1CC1)c1ccc2nc(-c3ccoc3)c(-c3ccoc3)nc2c1	inactive: -2.01%	–
Cc1cccc(NC(=O)COC(=O)c2ccc(S(=O)(=O)N3CCCC3)cc2)c1	–	inconclusive: 15.8 µM [inhibitor, single point]
OC(c1cccc(Cl)c1)c1nc(-c2cnc3ccccc3c2)cs1 (stereo unspecified)	–	inconclusive: 11.2 µM [inhibitor, partial curve, poor fit]
O=C(C1CCN(c2ncnc3c2nc2n3CCCCC2)CC1)N1CCN(c2ccc(F)cc2)CC1	–	inconclusive: 14.1 µM [inhibitor, partial curve, poor fit]
c1ccc(-c2csc3ncnc(N4CCc5ccccc5C4)c23)cc1	–	inconclusive: 22.4 µM [inhibitor, single point]
c1ccc(COc2ncnc3c2ncn3CCCNCC(c2ccccc2)c2ccccc2)cc1	–	active: 15.8 µM
Cc1[nH]c2ccccc2c1/C=N/Nc1ccc([N+](=O)[O-])cc1	inactive: 21.7%	–
COc1ccc(NC(=O)C2CCCN(S(=O)(=O)c3ccc4c(c3)CCCC(=O)N4)C2)cc1OC (stereo unspecified)	inactive: 9.22%	–
Cc1cccc(OCCCC(=O)Nc2ccc(S(=O)(=O)Nc3onc(C)c3C)cc2)c1C	inactive: 13.5%	–
OC(COC(c1ccc(Cl)cc1)c1ccc(Cl)cc1)CN1CCN(c2ccccn2)CC1 (stereo unspecified)	–	inconclusive: 28.2 µM [inhibitor, single point]
COc1ccc(N(Cc2cccs2)C(=O)c2ccc(Br)o2)cc1	inactive: -50.1%	–
N#CCc1c(C#N)c(N)nc(N2CCN(S(=O)(=O)c3ccccc3)CC2)c1C#N	–	inconclusive: 4.47 µM [inhibitor, single point]
C=C(C)c1cccc(C(C)(C)NC(=O)NCc2cccnc2)c1	–	inconclusive: 35.5 µM [inhibitor, single point]
Nc1cc(S(=O)(=O)N2CCCCC2)ccc1Oc1ccc(Cl)cc1	–	inconclusive: 20 µM [inhibitor, partial curve, poor fit]
O=C1[C@H]2[C@@H](/C=C/c3ccccc3)N3C(=O)CN(Cc4ccccn4)C(=O)[C@@]3(Cc3ccccc3)[C@H]2C(=O)N1c1ccccc1	–	inconclusive: 35.5 µM [inhibitor, single point]
CCC(=O)N1CCC1(C)C(=O)Nc1cccc(OC)c1OC (stereo unspecified)	inactive: -0.643%	–
CCCCN(CCCC)CCNC(=O)c1cn(CC)c2ccc(S(=O)(=O)N3CCc4ccccc4C3)cc2c1=O	–	inconclusive: 4.47 µM [inhibitor, full curve] and inconclusive: 891 nM [inhibitor, full curve, poor fit]
C=CCn1c(=S)[nH]c2cc(-c3ccccc3)sc2c1=O	inactive: 0.989%	–
COc1ccc(CCNC(=O)c2cc(S(=O)(=O)N3CCc4ccccc43)ccc2F)cc1OC	–	inconclusive: 12.6 µM [inhibitor, single point]
NC(=NCCc1ccccc1)NC(=O)c1cc(Cl)ccc1O	inactive: -14.3%	–
COC1=C(Nc2ccc(OC)cc2)C(=O)C(OC)=C(Nc2ccc(OC)cc2)C1=O	inactive: 8.85%	–
c1ccc(CNc2ncnc3sccc23)cc1	inactive: -23%	–
NS(=O)(=O)c1ccc(NC(=S)NC(=O)c2ccc3c(c2)OCO3)cc1	inactive: 12.4%	–

Compound	activity, negative = inhibition	Potency
CC(=O)Nc1ccc(-c2nnc(SCc3c(C)cc(C)cc3C)n2C)cc1	inactive: 15.7%	–
CC(=O)Nc1ccc(NC(=O)COC(=O)/C(=C/c2ccccc2)n2nnnc2C)cc1	–	inconclusive: 14.1 µM [inhibitor, single point]
CC(=O)Oc1cc2c(cc1Cl)C1(CC(c3ccccc3Cl)O2)CC(C)(C)NC(=S)N1 (stereo unspecified)	–	inconclusive: 20 µM [inhibitor, single point]
CCOc1ccc(NS(=O)(=O)c2ccc(-c3cnc(C4CC4)o3)cc2)cc1	–	inconclusive: 35.5 µM [inhibitor, single point]
COc1cccc(-c2nnc(Nc3nc4c(F)cccc4s3)o2)c1	–	inconclusive: 11.2 µM [inhibitor, partial curve, poor fit]
CCOC(=O)c1cccc(NC(=O)CCc2c(C)nn(-c3ccc(N4CCCC4)nn3)c2C)c1	–	inconclusive: 7.94 µM [inhibitor, partial curve]
O=C(NC(=S)N1CCN(c2ccc(F)cc2)CC1)c1ccccc1	inactive: -23.7%	–
Cc1cc(/C=C(/C#N)c2cccc(F)c2)c(C)n1-c1cccnc1	–	inconclusive: 10 µM [inhibitor, partial curve]
CCCCC(=O)OC1=C(C(C)=O)N(Cc2ccccc2)S(=O)(=O)c2ccccc21	inactive: -0.343%	–
C[C@@H]1C=C[C@](Cc2ccccc2)(C(=O)NCC2CC2)N1C(=O)c1ccccc1	–	inconclusive: 20 µM [inhibitor, single point]
COC(=O)NCc1ccc2c(c1)OCO2	–	inconclusive: 25.1 µM [inhibitor, single point]
CCOC(=O)c1c(NC(=O)c2ccc(S(=O)(=O)N3CCOCC3)cc2)sc2c1CCN(C(C)C)C2	inactive: -0.383%	–
CC(/C=N\NC(=O)c1cc(C)oc1C)=C\c1ccccc1	inactive: 2.27%	–
Cc1ccc(C(C)NC(=O)/C(C#N)=C\c2c(C)[nH]c3ccccc23)cc1 (stereo unspecified)	–	inconclusive: 25.1 µM [inhibitor, single point]
Cc1ccc(S(=O)(=O)N2CCN(C(=O)CCc3nc4ccccc4c(=O)[nH]3)CC2)c(C)c1	inactive: 3.22%	–
C=CCN(CC=C)Cc1cc(=O)oc2cc(C)c(Cl)cc12	–	inconclusive: 35.5 µM [inhibitor, single point]
Cc1ccc(CNC(=O)CN2NS(=O)(=O)c3ccccc3C2=O)cc1	inactive: -0.819%	–
Cc1nn(C)cc1C(C(=O)NC1CCCCC1)N(CCc1ccccc1)C(=O)c1cnccn1 (stereo unspecified)	inactive: 24.1%	–
Cn1cccc1Cc1nnc(SCC(=O)Nc2nccs2)n1CCc1ccccc1	inactive: -3.41%	–
O=C1/C(=C/c2cccc(O)c2)SC(=S)N1CC1CCCO1 (stereo unspecified)	–	inconclusive: 35.5 µM [inhibitor, single point]
Cc1ccccc1-c1nc(CS(=O)CC(=O)NC2CCCCC2)c(C)o1 (stereo unspecified)	inactive: -28.3%	–
O=C(Nc1ccccn1)Nc1ccccc1Cl	inactive: -3.64%	–
CCOc1ccc(OCC)c(NC(=O)C2CCN(S(=O)(=O)c3cn(C)cn3)CC2)c1	–	inconclusive: 5.62 µM [inhibitor, single point]
